This is an account of results in patent US20210180049A1 (CHUGAI SEIYAKU KABUSHIKI KAISHA, priority 2013, published 2021).

Usually Kd stands for the free concentration of one partner at which half of the binding sites on the other are occupied at equilibrium, for simple one-to-one binding.

The target of assay [1] is T1, human IL-6 receptor (hIL-6R) (Homo sapiens, UniProt P08887).
T1 sequence (P08887 20-357 limits assumed): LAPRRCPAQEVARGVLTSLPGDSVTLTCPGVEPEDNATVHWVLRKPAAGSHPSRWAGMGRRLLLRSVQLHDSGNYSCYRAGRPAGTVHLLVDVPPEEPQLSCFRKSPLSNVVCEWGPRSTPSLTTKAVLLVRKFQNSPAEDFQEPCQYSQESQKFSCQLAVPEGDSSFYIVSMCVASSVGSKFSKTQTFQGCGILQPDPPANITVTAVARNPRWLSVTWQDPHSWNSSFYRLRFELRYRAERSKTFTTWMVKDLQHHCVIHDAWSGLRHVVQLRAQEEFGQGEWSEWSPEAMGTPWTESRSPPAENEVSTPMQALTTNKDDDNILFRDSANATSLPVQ
Nature of the assay: SPR (Biacore T200) of ATP/adenosine-dependent antibody clones with immobilized hIL-6R with various small molecules. The assay is classed as binding. To be noted: 1 mM ATP; hIL-6R immobilized on Sensor chip CM5; antibody as analyte; 25° C., pH 7.4; from plot of equilibrium values against antibody concentration; read-out: Dissociation constant KD. How it is done:
Biacore T200 (GE Healthcare) was used to assess various small molecules for their effect on the antigen-antibody reaction between hIL-6R and nine clones of ATP/adenosine-dependent antibody (6RAD2C1-4_001, 6RAD2C1-4_005, 6RAD2C1-4_011, 6RAD2C1-4_026, 6RAD2C1-4_030, 6RAD2C1-4_042, 6RAD2C1-4_076, 6RDL3C1-4_085, and 6RDL3C5-4_011) isolated from a library. The running buffer used was 20 mmol/L ACES, 150 mmol/L NaCl, 0.05% (w/v) Tween20, pH 7.4. The assay was performed at 25° C. hIL-6R was immobilized onto Sensor chip CM5 by amine coupling, and interacted with the antibodies as an analyte for 120 seconds to observe changes in the amount of binding. Antibodies were diluted with the running buffer or the running buffer added with any one of ATP, ADP, AMP, cAMP, and adenosine (ADO). The final concentration of each small molecule was adjusted to 1 mM, and the final concentration of the antibody was adjusted to 1 μM. Meanwhile, under the 1 mM ATP condition, the assay was carried out with a series of stepwise antibody concentrations. The dissociation constant KD (mol/L) of each clone for hIL-6R was calculated from a plot of equilibrium values against antibody concentration. The parameters were calculated using the Biacore T200 Evaluation Software (GE Healthcare).
(SPR reads the build-up and loss of mass on a sensor chip optically.)

Assay [2] is described as follows: SPR (Biacore T200) binding of 6RNMSC1-2_F02 and variants to kynurenine. How it is done: An appropriate amount of protein A (Invitrogen) was immobilized onto Sensor chip CM4 (GE Healthcare) by the amine coupling method. The antibody of interest was captured thereon, and the antigen kynurenine and derivatives thereof were allowed to interact. The running buffer used was 50 mmol/L Tris-HCl, 150 mmol/L NaCl, 0.02% (w/v) Tween 20, 5% DMSO, pH 7.6. All measurements were carried out at 15° C. The antigens were diluted with the running buffer.
Then, the running buffer was run at a flow rate of 30 μL/min for 60 seconds to observe the dissociation of antigens from the antibody. Kinetic parameters, the association rate constant ka (1/Ms) and the dissociation rate constant kd (l/s), were calculated based on the sensorgrams obtained by the measurements. The dissociation constant KD (M) was calculated from these constants. Each parameter was calculated using Biacore T200 Evaluation Software (GE Healthcare).
(§1) Meanwhile, the type of sensor chip immobilized with Protein A was changed to Sensor chip Series S CM3 (GE Healthcare) to measure some of the variants. When kynurenine dissociation was too fast to determine the dissociation rate constant, a dissociation constant KD (M) was calculated by analysis of equilibrium values based on the degree of binding response during the interaction with each antigen (association phase). In this case also, Biacore T200 Evaluation Software (GE Healthcare) was used to calculate the parameters.
as §1
When kynurenine dissociation was too fast to determine the dissociation rate constant, the dissociation constant KD (M) was calculated by analysis of equilibrium values based on the degree of binding response when it is interacted with each antigen (association phase). Also in this case, the Biacore T200 Evaluation Software (GE Healthcare) was used to calculate parameters. […] Each variant and its parental antibody F02h011/F021003 were compared in terms of the KD value for kynurenine.
When kynurenine dissociation was too fast to determine the dissociation rate constant, the dissociation constant KD (M) was calculated by analyzing equilibrium values based on the degree of binding response when it is interacted with each antigen (association phase). […]

B1: 6RAD2C1-4_42 (antibody)
heavy: EVQLVESGGDLVKPGGGLRLSCAASGFTFSSYTMNWVRQAPGKGLEWVSSISSRSSYASYADSVKGRFTISRDNAKNSLYLQMNSLRAEDTAVYYCARYGRLNSHNWVFDYWGQGTLVTVSS[in this place human IgG1 constant region]
light: QSALTQPPSASGSPGQTVTISCTGTSTDVGFYNYVSWYQQHPGKAPKLMIYQGSKKPSGVPDRFSGSKSGNTASLTVSGLQAEDEADYFCSTRATTKGVLFGGGTKLTVLGQPKAAPSVTLFPPSSEELQANKATLVCLISDFYPGAVTVAWKADSSPVKAGVETTTPSKQSNNKYAASSYLSLTPEQWKSHRSYSCQVTHEGSTVEKTVAPTECS
With B1, in assay [1], the Kd was 250 nM.

B2: 6RDL3C5-4_11 (antibody)
heavy: EVQLVESGGDLVKPGGGLRLSCAASGFTFSSHTMNWVRQAPGKGLEWVSSISSRSGYIFYADSVKGRFTISRDNAKNSLYLQMNSLRAEDTAVYYCARFGKLNHMNWVFDYWGQGTLVTVSS[in this place human IgG1 constant region]
light: QSALTQPPSASGSPGQTVTISCTGTSTDVGTYNYVSWYQQHPGKAPKLMIYQVSKRPSGVPDRFSGSKSGNTASLTVSGLQAEDEADYFCSTRAITRGVAFGGGTKLTVLGQPKAAPSVTLFPPSSEELQANKATLVCLISDFYPGAVTVAWKADSSPVKAGVETTTPSKQSNNKYAASSYLSLTPEQWKSHRSYSCQVTHEGSTVEKTVAPTECS
For the molecule B2, in assay [1], the Kd stood at 130 nM.

B3: 6RNMSC1-2_F02H49Y: heavy chain SEQ ID NO: 32; light chain SEQ ID NO: 45 (antibody, listed as Homo sapiens, V domains shown)
VH: QVQLVQSGAEVKKPGSSVKVSCKASGGTFSSYAISWVRQAPGQGLEWMGGIIPIFGTANYAQKFQGRVTITADESTSTAYMELSSLRSEDTAVYYCARDAPVVARPRGAFDIWGQGTMVTVSS
VL: [in this place about 100 residues]QFPRTFGQGTKVEIK
With B3, the “kynurenine binding (in words)” value in assay [2] (Biacore) is given as “retained kynurenine binding”. In assay [2] (Biacore T200, 15° C., 5% DMSO), binding was characterised by a dissociation constant (Kd) of 95000 nM, the ka for kynurenine is 2543 l/(M·s) and the kd for kynurenine was found to be 0.24 L/s.
